Experimental data published in the supplement of paper PMC12217912.
Some of the results follow. The full chains were built here from the parent and the listed change. Values near 0.05 are background.

B1: TEV protease; numbered along this chain (parent)
chain: MGESLFKGPRDYNPISSSICHLTNESDGHTTSLYGIGFGPFIITNKHLFRRNNGTLVVQSLHGVFKVKDTTTLQQHLVDGRDMIIIRMPKDFPPFPQKLKFREPQREERICLVTTNFQTKSMSSMVSDTSCTFPSGDGIFWKHWIQTKDGQCGSPLVSTRDGFIVGIHSASNFTNTNNYFTSVPKNFMELLTNQEAQQWVSGWRLNADSVLWGGHKVFMVKPEEPFQPVKEATQL

Variants of: B1
Assay: raw area under fraction-flipped curve 0-4 h after induction (AUC4h, not background-subtracted), DNA-recorder readout of cleavage of the substrate (dimensionless); higher = more cleavage of the substrate by the protease variant
Details: temperature: 34 °C; time window: 0-4 h after rhamnose induction
Procedure: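 In vivo DNA recorder in E. coli TOP10(DE3) ΔrhaA at 34 °C. Each TEVp single-site mutant (parent TEVp 0) is paired with a single-site variant of the 7-mer TEVs (canonical ENLYFQ|S). The substrate sits between flexible linkers in a Bxb1-sfGFP-TEVs-SsrA fusion, so cleavage stabilises Bxb1 and speeds flipping of a recombination array, read by NGS. The value is the raw area under the fraction-flipped curve over 0-4 h after rhamnose induction (AUC4h), with ≥20 reads per time point. It is not background-subtracted; inactive controls average about 0.047.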
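Further: Bxb1 expression induced with 0.2% (w/v) L-rhamnose at OD600 near 0.5, cultures sampled hourly, flipped fraction per protease–substrate barcode pair counted by paired-end Illumina sequencing.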

Variant | area with substrate ENAYFQS | area with substrate ENCYFQS | area with substrate ENDYFQS | area with substrate ENEYFQS | area with substrate ENFYFQS | area with substrate ENGYFQS | area with substrate ENHYFQS | area with substrate ENKYFQS | area with substrate ENNYFQS | area with substrate ENQYFQS | area with substrate ENRYFQS | area with substrate ENSYFQS | area with substrate ENVYFQS | area with substrate ENWYFQS | area with substrate ENYYFQS | area with substrate ENIYFQS | area with substrate ENPYFQS | area with substrate ENTYFQS | area with substrate ENMYFQS
MGESLFKGPRDYNPISSSICHLTNESDGHTTSLYGIGFGPFIITNKHLFRRNNGTLVVQSLHGVFKVKDTTTLQQHLVDGRDMIIIRMPKDFPPFPQKLKFREPQREERICLVTTNFQTKSMSSMVSDTSCTFPSGDGIFWKHWIQTKDGQCGSPLVSTRDGFIVGIHSASNFTNTNNYFTSVPKNFMELLTNQEAQQWVSGWRLNADSDLWGGHKVFMVKPEEPFQPVKEATQL [V210D] | 0.0635 | 0.0658 | 0.0571 | 0.0645 | 0.0611 | 0.0574 | 0.0554 | 0.0531 | 0.0706 | 0.0557 | 0.0682 | 0.0448 | 0.0823 | 0.052 | 0.0642 | – | – | – | –
MGESLFKGPRDYNPISSSICHLTNESDGHTTSLYGIGFGPFIITNKHLFRRNNGTLVVQSLHGVFKVKDTTTLQQHLVDGRDMIIIRMPKDFPPFPQKLKFREPQREERICLVTTNFQTKSMSSMVSDTSCTFPSGDGIFWKHWIQTKDGQCGSPLVSTRDGFIVGIHSASNFTNTNNYFTSVPKNFMELLTNQEAQQWVSGWRLNADSGLWGGHKVFMVKPEEPFQPVKEATQL [V210G] | 0.0652 | – | 0.0598 | 0.0503 | 0.0574 | 0.0685 | – | – | – | 0.053 | – | 0.0523 | 0.0726 | – | 0.066 | 0.0733 | – | – | –
MGESLFKGPRDYNPISSSICHLTNESDGHTTSLYGIGFGPFIITNKHLFRRNNGTLVVQSLHGVFKVKDTTTLQQHLVDGRDMIIIRMPKDFPPFPQKLKFREPQREERICLVTTNFQTKSMSSMVSDTSCTFPSGDGIFWKHWIQTKDGQCGSPLVSTRDGFIVGIHSASNFTNTNNYFTSVPKNFMELLTNQEAQQWVSGWRLNADSVLWGGGKVFMVKPEEPFQPVKEATQL [H215G] | 0.0606 | 0.0616 | 0.0719 | 0.0559 | 0.0662 | – | 0.0606 | 0.0512 | 0.0603 | 0.0627 | 0.0603 | 0.0617 | 0.0661 | – | – | – | 0.0646 | 0.0483 | –
MGESLFKGPRDYNPISSSICHLTNESDGHTTSLYGIGFGPFIITNKHLFRRNNGTLVVQSLHGVFKVKDTTTLQQHLVDGRDMIIIRMPKDFPPFPQKLKFREPQREERICLVTTNFQTKSMSSMVSDTSCTFPSGDGIFWKHWIQTKDGQCGSPLVSTRDGFIVGIHSASNFTNTNNYFTSVPKNFMELLTNQEAQQWVSGWRLNADSVLWGVHKVFMVKPEEPFQPVKEATQL [G214V] | 0.0583 | 0.0813 | – | 0.0684 | 0.0643 | – | – | – | 0.0569 | 0.0614 | 0.0405 | 0.0559 | 0.0572 | – | 0.0584 | – | 0.0835 | 0.0592 | –
MGESLFKGPRDYNPISSSICHLTNESDGHTTSLYGIGFGPFIITNKHLFRRNNGTLVVQSLHGVFKVKDTTTLQQHLVDGRDMIIIRMPKDFPPFPQKLKFREPQREERICLVTTNFQTKSMSSMVSDTSCTFPSGDGIFWKHWIQTKDGQCGSPLVSTRDGFIVGIHSASNFTNTNNYFTSVPKNFMELLTNQEAQQWVSGWRLNADSVLWKGHKVFMVKPEEPFQPVKEATQL [G213K] | 0.0596 | 0.0487 | 0.0635 | 0.0554 | 0.0601 | 0.0601 | – | – | 0.0532 | 0.0565 | 0.0535 | 0.0661 | 0.0691 | 0.0506 | – | – | 0.0588 | 0.0597 | –
MGESLFKGPRDYNPISSSICHLTNESDGHTTSLYGIGFGPFIITNKHLFRRNNGTLVVQSLHGVFKVKDTTTLQQHLVDGRDMIIIRMPKDFPPFPQKLKFREPQREERICLVTTNFQTKSMSSMVSDTSCTFPSGDGIFWKHWIQTKDGQCGSPLVSTRDGFIVGIHSASNFTNTNNYFTSVPKNFMELLTNQEAQQWVSGWRLNADSVLWYGHKVFMVKPEEPFQPVKEATQL [G213Y] | 0.0622 | 0.0442 | 0.0673 | 0.0596 | 0.0336 | 0.0556 | 0.0604 | 0.0632 | 0.0635 | 0.0678 | – | 0.0615 | 0.0488 | 0.0458 | – | 0.043 | 0.0537 | 0.0725 | –
MGESLFKGPRDYNPISSSICHLTNESDGHTTSLYGIGFGPFIITNKHLFRRNNGTLVVQSLHGVFKVKDTTTLQQHLVDGRDMIIIRMPKDFPPFPQKLKFREPQREERICLVTTNFQTKSMSSMVSDTSCTFPSGDGIFWKHWIQTKDGQCGSPLVSTRDGFIVGIHSASNFTNTNNYFTSVPKNFMELLTNQEAQQWVSGWRLNADSVLWAGHKVFMVKPEEPFQPVKEATQL [G213A] | 0.0601 | 0.0601 | 0.0616 | 0.056 | 0.057 | 0.0742 | 0.0594 | 0.0807 | 0.0594 | 0.0645 | 0.0595 | 0.0769 | 0.0571 | 0.0497 | 0.0313 | 0.0464 | – | 0.0667 | 0.0633
MGESLFKGPRDYNPISSSICHLTNESDGHTTSLYGIGFGPFIITNKHLFRRNNGTLVVQSLHGVFKVKDTTTLQQHLVDGRDMIIIRMPKDFPPFPQKLKFREPQREERICLVTTNFQTKSMSSMVSDTSCTFPSGDGIFWKHWIQTKDGQCGSPLVSTRDGFIVGIHSASNFTNTNNYFTSVPKNFMELLTNQEAQQWVSGWRLNADSVLWGGHKNFMVKPEEPFQPVKEATQL [V217N] | 0.0564 | 0.0548 | 0.0654 | 0.0697 | – | – | 0.0639 | – | – | 0.0549 | 0.0708 | – | 0.0607 | – | 0.069 | – | – | – | –
MGESLFKGPRDYNPISSSICHLTNESDGHTTSLYGIGFGPFIITNKHLFRRNNGTLVVQSLHGVFKVKDTTTLQQHLVDGRDMIIIRMPKDFPPFPQKLKFREPQREERICLVTTNFQTKSMSSMVSDTSCTFPSGDGIFWKHWIQTKDGQCGSPLVSTRDGFIVGIHSASNFTNTNNYFTSVPKNFMELLTNQEAQQWVSGWRLNADSVLWGGHKHFMVKPEEPFQPVKEATQL [V217H] | 0.0576 | 0.0613 | 0.052 | 0.0633 | 0.049 | 0.0727 | – | – | 0.073 | 0.0586 | 0.072 | 0.0585 | 0.0658 | – | 0.0459 | – | – | 0.0622 | 0.0586
